# Data reported in the supplement of paper PMC8728848.
# This is one part of the list.
# B1: mLPHN-1 (Mus musculus), Q80TR1 (protein)
# chain: MARLAAALWSLCVTTVLVTSATQGLSRAGLPFGLMRRELACEGYPIELRCPGSDVIMVENANYGRTDDKICDADPFQMENVQCYLPDAFKIMSQRCNNRTQCVVVAGSDAFPDPCPGTYKYLEVQYDCVPYIFVCPGTLQKVLEPTSTHESEHQSGAWCKDPLQAGDRIYVMPWIPYRTDTLTEYASWEDYVAARHTTTYRLPNRVDGTGFVVYDGAVFYNKERTRNIVKYDLRTRIKSGETVINTANYHDTSPYRWGGKTDIDLAVDENGLWVIYATEGNNGRLVVSQLNPYTLRFEGTWETGYDKRSASNAFMVCGVLYVLRSVYVDDDSEAAGNRVDYAFNTNANREEPVSLAFPNPYQFVSSVDYNPRDNQLYVWNNYFVVRYSLEFGPPDPSAGPATSPPLSTTTTARPTPLTSTASPAATTPLRRAPLTTHPVGAINQLGPDLPPATAPAPSTRRPPAPNLHVSPELFCEPREVRRVQWPATQQGMLVERPCPKGTRGIASFQCLPALGLWNPRGPDLSNCTSPWVNQVAQKIKSGENAANIASELARHTRGSIYAGDVSSSVKLMEQLLDILDAQLQALRPIERESAGKNYNKMHKRERTCKDYIKAVVETVDNLLRPEALESWKDMNATEQVHTATMLLDVLEEGAFLLADNVREPARFLAAKQNVVLEVTVLNTEGQVQELVFPQEYPSENSIQLSANTIKQNSRNGVVKVVFILYNNLGLFLSTENATVKLAGEAGTGGPGGASLVVNSQVIAASINKESSRVFLMDPVIFTVAHLEAKNHFNANCSFWNYSERSMLGYWSTQGCRLVESNKTHTTCACSHLTNFAVLMAHREIYQGRINELLLSVITWVGIVISLVCLAICISTFCFLRGLQTDRNTIHKNLCINLFLAELLFLVGIDKTQYEVACPIFAGLLHYFFLAAFSWLCLEGVHLYLLLVEVFESEYSRTKYYYLGGYCFPALVVGIAAAIDYRSYGTEKACWLRVDNYFIWSFIGPVSFVIVVNLVFLMVTLHKMIRSSSVLKPDSSRLDNIKSWALGAIALLFLLGLTWAFGLLFINKESVVMAYLFTTFNAFQGVFIFVFHCALQKKVHKEYSKCLRHSYCCIRSPPGGTHGSLKTSAMRSNTRYYTGTQSRIRRMWNDTVRKQTESSFMAGDINSTPTLNRGTMGNHLLTNPVLQPRGGTSPYNTLIAESVGFNPSSPPVFNSPGSYREPKHPLGGREACGMDTLPLNGNFNNSYSLRSGDFPPGDGGPEPPRGRNLADAAAFEKMIISELVHNNLRGASGGAKGPPPEPPVPPVPGVSEDEAGGPGSADRAEIELLYKALEEPLLLPRAQSVLYQSDLDESESCTAEDGATSRPLSSPPGRDSLYASGANLRDSPSYPDSSPEGPNEALPPPPPAPPGPPEIYYTSRPPALVARNPLQGYYQVRRPSHEGYLAAPSLEGPGPDGDGQMQLVTSL
# Columns and labels:
# Assay in all cases: glycan array binding signal (z-score within array); higher = stronger binding
# Details in all cases: glycan notation: IUPAC condensed, linker removed
# [1] = biological target: Fuc(a1-2)[GalNAc(a1-3)]Gal(b1-4)[Fuc(a1-3)]GlcNAc
# Outline: (§1)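 Glycan array data came from 3228 arrays in the Consortium for Functional Glycomics database, and only arrays with an available protein sequence were kept. Glycan names were put into IUPAC-condensed notation, and columns mapping to the same glycan were averaged. The binding signal is a within-array Z-score, averaged across arrays of one protein sequence run at different concentrations or buffers and across linkers. A negative Z-score can be read as non-binding.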
# [2] = biological target: Fuc(a1-2)[GalNAc(a1-4)]Gal(b1-4)GlcNAc
# Outline: as §1
# [3] = biological target: Fuc(a1-2)[GalNAc(b1-3)]Gal
# Outline: as §1
# Fuc(a1-3)GlcNAc = biological target: Fuc(a1-3)GlcNAc
# Outline: as §1
# [4] = biological target: Fuc(a1-3)[Gal(b1-4)]Glc6S
# Outline: as §1
# [5] = biological target: Fuc(a1-3)[Gal(b1-4)]GlcNAc
# Outline: as §1
# [6] = biological target: Fuc(a1-3)[Gal(b1-4)]GlcNAc(b1-2)Man(a1-3)[Fuc(a1-3)[Gal(b1-4)]GlcNAc(b1-2)Man(a1-6)]Man(b1-4)GlcNAc(b1-4)GlcNAc
# Outline: as §1
# [7] = biological target: Fuc(a1-3)[Gal(b1-4)]GlcNAc(b1-2)Man(a1-6)[Gal(b1-4)GlcNAc(b1-2)Man(a1-3)]Man(b1-4)GlcNAc(b1-4)GlcNAc
# Outline: as §1
# [8] = biological target: Fuc(a1-3)[Gal(b1-4)]GlcNAc(b1-3)Gal(b1-3)[Fuc(a1-4)]GlcNAc
# Outline: as §1
# [9] = biological target: Fuc(a1-3)[Gal(b1-4)]GlcNAc(b1-4)Gal(b1-4)[Fuc(a1-3)]GlcNAc
# Outline: as §1
# [10] = biological target: Fuc(a1-3)[Gal(b1-4)]GlcNAc(b1-4)Gal(b1-4)[Fuc(a1-3)]GlcNAc(b1-4)Gal(b1-4)[Fuc(a1-3)]GlcNAc
# Outline: as §1
# [11] = biological target: Fuc(a1-3)[Gal(b1-4)]GlcNAc6S
# Outline: as §1
# [12] = biological target: Fuc(a1-3)[Gal3S(b1-4)]Glc6S
# Outline: as §1
# [13] = biological target: Fuc(a1-3)[Gal3S(b1-4)]GlcNAc
# Outline: as §1
# [14] = biological target: Fuc(a1-3)[Gal3S(b1-4)]GlcNAc6S
# Outline: as §1
# [15] = biological target: Fuc(a1-3)[GalNAc(b1-4)]GlcNAc
# Outline: as §1
# Fuc(a1-4)GlcNAc = biological target: Fuc(a1-4)GlcNAc
# Outline: as §1
# Fuc(b1-3)GlcNAc = biological target: Fuc(b1-3)GlcNAc
# Outline: as §1
# Gal(a1-2)Gal = biological target: Gal(a1-2)Gal
# Outline: as §1
# Gal(a1-3)Gal = biological target: Gal(a1-3)Gal
# Outline: as §1
# Gal(a1-3)Gal(b1-3)GlcNAc = biological target: Gal(a1-3)Gal(b1-3)GlcNAc
# Outline: as §1
# Gal(a1-3)Gal(b1-4)Glc = biological target: Gal(a1-3)Gal(b1-4)Glc
# Outline: as §1
# Gal(a1-3)Gal(b1-4)GlcNAc = biological target: Gal(a1-3)Gal(b1-4)GlcNAc
# Outline: as §1
# [16] = biological target: Gal(a1-3)Gal(b1-4)[Fuc(a1-3)]GlcNAc
# Outline: as §1
# Gal(a1-3)GalNAc = biological target: Gal(a1-3)GalNAc
# Outline: as §1
# [17] = biological target: Gal(a1-3)[Gal(a1-4)]Gal(b1-4)GlcNAc
# Outline: as §1
# Gal(a1-4)Gal(b1-4)Glc = biological target: Gal(a1-4)Gal(b1-4)Glc
# Outline: as §1
# Gal(a1-4)Gal(b1-4)GlcNAc = biological target: Gal(a1-4)Gal(b1-4)GlcNAc
# Outline: as §1
# Gal(a1-4)GlcNAc = biological target: Gal(a1-4)GlcNAc
# Outline: as §1
# Gal(a1-6)Glc = biological target: Gal(a1-6)Glc
# Outline: as §1
binder,measurement,setting,value
B1,glycan array binding signal (z-score),[1],-0.095
same,glycan array binding signal (z-score),[2],0.22
same,glycan array binding signal (z-score),[3],0.576
same,glycan array binding signal (z-score),Fuc(a1-3)GlcNAc,0.258
same,glycan array binding signal (z-score),[4],-0.349
same,glycan array binding signal (z-score),[5],-0.065
same,glycan array binding signal (z-score),[6],-0.372
same,glycan array binding signal (z-score),[7],-0.18
same,glycan array binding signal (z-score),[8],-0.297
same,glycan array binding signal (z-score),[9],-0.362
same,glycan array binding signal (z-score),[10],-0.395
same,glycan array binding signal (z-score),[11],-0.045
same,glycan array binding signal (z-score),[12],-0.232
same,glycan array binding signal (z-score),[13],0.291
same,glycan array binding signal (z-score),[14],-0.146
same,glycan array binding signal (z-score),[15],0.557
same,glycan array binding signal (z-score),Fuc(a1-4)GlcNAc,-0.33
same,glycan array binding signal (z-score),Fuc(b1-3)GlcNAc,-0.048
same,glycan array binding signal (z-score),Gal(a1-2)Gal,-0.272
same,glycan array binding signal (z-score),Gal(a1-3)Gal,0.155
same,glycan array binding signal (z-score),Gal(a1-3)Gal(b1-3)GlcNAc,-0.505
same,glycan array binding signal (z-score),Gal(a1-3)Gal(b1-4)Glc,-0.08
same,glycan array binding signal (z-score),Gal(a1-3)Gal(b1-4)GlcNAc,-0.113
same,glycan array binding signal (z-score),[16],0.451
same,glycan array binding signal (z-score),Gal(a1-3)GalNAc,-0.05
same,glycan array binding signal (z-score),[17],-0.374
same,glycan array binding signal (z-score),Gal(a1-4)Gal(b1-4)Glc,-0.17
same,glycan array binding signal (z-score),Gal(a1-4)Gal(b1-4)GlcNAc,-0.187
same,glycan array binding signal (z-score),Gal(a1-4)GlcNAc,-0.181
same,glycan array binding signal (z-score),Gal(a1-6)Glc,-0.443
